Data: patent US10858425B2, “Pan-ELR+ CXC chemokine antibodies” (Eli Lilly and Company, priority 2013, dated 2020)

Columns and labels:
human CXCL5 = target: T1, human CXCL5 (Homo sapiens, UniProt P42830); experiment: FLIPR neutralization using HMEC cells expressing human CXCR2, CXCL5; assay type: cell-based; conditions: CXCL5 10 nM; HMEC-huCXCR2 FLIPR
T1 sequence (P42830 41-114 limits assumed): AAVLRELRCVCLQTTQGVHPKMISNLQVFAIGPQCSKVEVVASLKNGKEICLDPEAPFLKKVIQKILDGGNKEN
Excerpt: Since all of the ELR+ CXC chemokines can bind CXCR2 receptor, cells expressing CXCR2 were selected for in vitro studies. HMEC-huCXCR2 is an immortalized human endothelial cell line transduced with retrovirus for expression of human CXCR2 receptor. HMEC cells expressing human CXCR2 are able to induce intracellular Ca^2+ influx in response to human, cynomolgus monkey, rat, and mouse ELR+CXC chemokines. Intracellular Ca^2+ influx can be detected by a Fluorescent Imagine £late Reader (FLIPR). Chemokine neutralization should therefore also neutralize intracellular Ca^2+ influx induced by these chemokines.
HMEC-huCXCR2 is maintained in MCDB 31 medium supplemented with 10% fetal bovine serum, 2× GlutaMax, 1× non-essential amino acids, 1 μg/mL hydrocortisone, 10 ng/mL human Epidermal Growth Factor, and 0.4 μg/mL puromycin at 37° C. in 5% CO2. […] A cell plate and a ligand-antibody plate are loaded into a Fluorescent Imagine Plate Reader (FLIPR-3, Molecular Devices) programmed to transfer 50 μL of ligand-antibody to wells of the cell plate. Fluorescence is recorded every second for 90 seconds. The change in fluorescence (DRFU) is calculated from images 10 to 90. DRFU versus log (antibody concentration) is plotted and IC50 values are determined by nonlinear regression using Graph Pad Prism. […] Data are expressed as the mean of replicates. […]

[1] = tested on: 786-0 renal cell carcinoma (RCC) cells; experiment: 786-0 clear cell renal cell xenograft model; assay type: in vivo, athymic nude female mice; conditions: addition of Antibody 1 (20 mg/kg once a week) to sunitinib treatment (10 mg/kg two times a day); p<0.0001
Protocol: 786-0 renal cell carcinoma (RCC) cells are mixed 1:1 with matrigel and implanted subcutaneously in the right rear flank of athymic nude female mice at 3.0×10^6 cells per injection. 786-0 xenograft-bearing mice having tumor volumes that reached 100 mm^3 were orally gavaged with 10 mg/kg of sunitinib two times a day under a continuous dosing regimen until the mice started progressing with tumor growth even under sunitinib treatment like control-treated mice (IgG4 and 10% vehicle). Mice that were progressing with tumor growth on sunitinib therapy were randomly divided into 2 groups. One group receives sunitinib at 10 mg/kg two times a day plus control IgG4 antibody at 20 mg/kg once a week. The other group receives suninitib at 10 mg/kg two times a day plus Antibody 1 at 20 mg/kg once a week.

human CXCL1 (Gro alpha) = target: T2, human CXCL1 (Gro alpha) (Homo sapiens, UniProt P09341); experiment: Biacore surface plasmon resonance binding to human CXCL1; conditions: 25° C.
T2 sequence (P09341 35-107): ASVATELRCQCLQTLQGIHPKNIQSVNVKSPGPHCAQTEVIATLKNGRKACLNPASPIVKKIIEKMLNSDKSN
Protocol: Biacore 2000 instrument and Biacore 2000 Evaluation Software Version 4.1 are used for surface plasmon resonance analysis. A […] chip is prepared using manufacturer's EDC/NHS amine coupling method. Briefly, the surfaces of all four flow cells are activated by injecting a 1:1 mixture of EDC/NHS for 7 minutes at 10 μL/min. Protein A is diluted to 100 μg/mL in 10 mM acetate, pH 4.5 buffer, and immobilized to achieve approximately 10,000 RU onto all 4 flow cells by 7-minute injection at a flow rate of 10 μL/minute. Unreacted sites are blocked with a 7-minute injection of ethanolamine at 10 μL/minute. Two injections of glycine (pH 1.5) for 30 seconds at 10 μL/minute are used to remove any non-covalently associated protein. Running buffer is HBS-EP+.
Antibody 1 or Antibody 2 is diluted to 2 μg/mL in running buffer, and approximately 400-600 RU is captured in flow cell (Fc). Ligands are diluted from 100 μg/mL to 50 nM in running buffer and then two-fold serially diluted in running buffer to 3.125 nM. Duplicate injections of each ligand concentration are injected at 100 μL/min for 150 seconds followed by a dissociation phase. […] The on-rate (kon) and off-rate (koff) for each ligand are evaluated using a “1:1 (mass transfer) Binding” binding model. The affinity […] is calculated from the binding kinetics according to the relationship: KD=koff/kon.

B1: Antibody 1: antibody with heavy chain SEQ ID NO: 1 and light chain SEQ ID NO: 3, expressed in NSO cells (antibody)
heavy: QVQLVQSGAEVKKPGASVKVSCKASGYEFTSYWIHWVRQAPGQGLEWMGNISPNSGSANYNEKFKSRVTMTRDTSTSTVYMELSSLRSEDTAVYYCAREGPYSYYPSREYYGSDLWGQGTLVTVSSASTKGPSVFPLAPCSRSTSESTAALGCLVKDYFPEPVTVSWNSGALTSGVHTFPAVLQSSGLYSLSSVVTVPSSSLGTKTYTCNVDHKPSNTKVDKRV[human IgG4 Fc with S228P (EU numbers) not spelt out]
light: EIVLTQSPATLSLSPGERATLSCRASQSISNNLHWYQQKPGQAPRLLIYYTSRSVSGIPARFSGSGSGTDFTLTISSLEPEDFAVYYCGQNNEWPEVFGGGTKVEIKRTVAAPSVFIFPPSDEQLKSGTASVVCLLNNFYPREAKVQWKVDNALQSGNSQESVTEQDSKDSTYSLSSTLTLSKADYEKHKVYACEVTHQGLSSPVTKSFNRGEC
Human CXCL5
  IC50: 0.681 (±0.347) ug/mL
[1]
  tumor growth over time: reduced tumor growth significantly
Human CXCL1 (Gro alpha)
  kon: 9.30 ± 0.45 (1/Ms) × 10^5
